Literature values as cited in patent US20080160019A1, “SEQUENTIAL COMBINATION THERAPY” (DYAX CORP., priority 2006, published 2008).

Target: T1, Tie1 (Homo sapiens, UniProt P35590)
T1 sequence (P35590 22-1138): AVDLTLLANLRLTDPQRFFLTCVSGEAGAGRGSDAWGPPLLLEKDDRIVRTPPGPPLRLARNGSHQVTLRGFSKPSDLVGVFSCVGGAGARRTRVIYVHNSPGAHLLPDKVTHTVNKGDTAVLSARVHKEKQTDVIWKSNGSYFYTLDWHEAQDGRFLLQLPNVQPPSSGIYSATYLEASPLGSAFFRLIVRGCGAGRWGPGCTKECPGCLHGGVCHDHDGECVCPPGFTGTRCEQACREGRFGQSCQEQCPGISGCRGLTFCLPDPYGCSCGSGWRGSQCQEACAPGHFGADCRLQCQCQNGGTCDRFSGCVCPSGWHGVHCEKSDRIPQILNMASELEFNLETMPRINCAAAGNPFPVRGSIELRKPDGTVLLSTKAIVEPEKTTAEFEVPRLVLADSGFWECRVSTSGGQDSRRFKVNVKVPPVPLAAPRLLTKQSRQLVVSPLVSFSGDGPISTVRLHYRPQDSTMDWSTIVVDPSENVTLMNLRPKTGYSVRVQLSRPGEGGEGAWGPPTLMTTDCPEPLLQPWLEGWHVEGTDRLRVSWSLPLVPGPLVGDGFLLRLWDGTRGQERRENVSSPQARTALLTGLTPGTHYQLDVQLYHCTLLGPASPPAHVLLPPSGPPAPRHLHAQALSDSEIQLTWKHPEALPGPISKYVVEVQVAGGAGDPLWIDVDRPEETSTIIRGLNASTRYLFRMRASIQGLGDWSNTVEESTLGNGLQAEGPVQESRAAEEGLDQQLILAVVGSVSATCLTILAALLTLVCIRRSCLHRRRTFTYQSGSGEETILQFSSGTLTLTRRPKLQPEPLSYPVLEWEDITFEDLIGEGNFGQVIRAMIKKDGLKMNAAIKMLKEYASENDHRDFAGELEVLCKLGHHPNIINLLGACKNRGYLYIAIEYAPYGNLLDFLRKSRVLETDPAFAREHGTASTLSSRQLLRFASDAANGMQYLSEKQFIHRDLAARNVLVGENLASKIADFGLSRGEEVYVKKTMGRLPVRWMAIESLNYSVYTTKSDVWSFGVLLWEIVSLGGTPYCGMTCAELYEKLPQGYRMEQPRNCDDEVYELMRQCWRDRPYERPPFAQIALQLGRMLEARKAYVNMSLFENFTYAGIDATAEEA

B1: DX-2220: full length, IgG1, germlined human anti-Tie1 antibody E3b (SEQ ID NO:6, 7) (protein, listed as Homo sapiens)
light: DIQMTQSPSSLSASVGDRVTITCRASQGIGHYLAWYQQKPGKVPKLLIYTASTLQSGVPSRFSGSGSGTDFTLTISSLQPEDVATYYCQQFNSYPHTFGQGTRLEIKRTVAAPSVFIFPPSDEQLKSGTASVVCLLNNFYPREAKVQWKVDNALQSGNSQESVTEQDSKDSTYSLSSTLTLSKADYEKHKVYACEVTHQGLSSPVTKSFNRGEC
heavy: EVQLLESGGGLVQPGGSLRLSCAASGFTFSMYGMVWVRQAPGKGLEWVSVISPSGGNTGYADSVKGRFTISRDNSKNTLYLQMNSLRAEDTAVYYCARAPRGYSYGYYYWGQGTLVTVSS[left out - human IgG1 constant region]
- Tie1 tyrosine phosphorylation: induce
- Tie complex formation: induce
- down modulation of Tie1 from the cell surface: induce
- Tie1/Tie2 heterodimers on the surface of cells expressing Tie1 and Tie2 (e.g., endothelial cells): down-modulation
